Each structure is given as a SMILES string.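 Exposure lasted 48 hours, with cells grown in 96-well plates and compounds tested at five concentrations. At the GI50, growth is halved.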 The source holds more than one record for some entries. They are shown here; other results are not. An entry can have further records. For some of these results: The tests behind the records often covered other concentration ranges, not given here; some values may only mark the edge of a range. What stands in brackets tells the records apart. Letters count within one entry. For some of these results: Values that stand side by side are repeats across runs, samples, wells, individuals or studies.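 TGI denotes the concentration required for complete inhibition of growth.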

Some test systems named below: MOLT-4 leukemia; SNB-75 CNS; IGROV1 ovarian; SR leukemia; 786-0 renal; A498 renal; A549 NSCLC; ACHN renal; CAKI-1 renal; COLO 205 colon; EKVX NSCLC; HCC-2998 colon; HCT-116 colon; HCT-15 colon; HOP-62 NSCLC; HOP-92 NSCLC; HT29 colon; KM12 colon; LOX IMVI melanoma; M14 melanoma; MALME-3M melanoma; MCF7 breast; MDA-MB-231 breast; MDA-MB-435; NCI-H23 lung; NCI-H460 lung; NCI-H522 lung; NCI/ADR-RES ovarian; OVCAR-3 ovarian; OVCAR-4 ovarian; OVCAR-5 ovarian; OVCAR-8 ovarian; RPMI-8226 leukemia; RXF 393 renal; SF-295 CNS; SF-539 CNS; SK-MEL-2 melanoma; SK-MEL-28 melanoma; SK-MEL-5 melanoma; SK-OV-3 ovarian; SN12C renal; SNB-19 CNS; T-47D breast; TK-10 renal; U251 CNS; UACC-257 melanoma; UACC-62 melanoma; UO-31 renal; DU-145 prostate.

Common to all, as to experiment: growth of human tumour cells (NCI), 48 h

For `CN1CCN(c2ccc([N+](=O)[O-])c3no[n+]([O-])c23)CC1`, the TGI in the assay on MOLT-4 leukemia was 16.1 nM [sample A, 1 test] and 356 nM [sample B, mean of 2 tests]; in the assay on SNB-75 CNS, 70.5 nM [sample A] and 1.35 µM [sample B].
Regarding `CCCCc1oc2ccccc2c1C(=O)c1cc(I)c(OCCN(CC)CC)c(I)c1`, in the assay on IGROV1 ovarian, the TGI was 250 µM [sample A] and 19.9 µM [sample B].
For `COc1ccc(-c2c(C(C)=O)c(-c3ccccc3)n(C3OC(COC(C)=O)C(OC(C)=O)C(OC(C)=O)C3OC(C)=O)c(=S)c2C#N)cc1O` (centres undefined), the GI50 with SR leukemia is 152 nM [sample A, 1 test] and 85.5 µM [sample B, 1 test].
For the molecule `O=c1[nH]cc(F)c(=O)[nH]1`, the TGI is 63 µM, 1.68 mM, > 2.5 mM [sample A] and > 100 µM [sample B] with 786-0 renal; 691 µM, 9.23 µM [sample A] and > 100 µM [sample B] with A498 renal; > 75 µM, 1.88 mM, 924 µM [sample A] and > 100 µM [sample B] with A549 NSCLC; 42.8 µM, 1.7 mM [sample A] and > 100 µM [sample B] with ACHN renal; 5.32 µM, 1.04 mM, > 2.5 mM [sample A] and > 100 µM [sample B] in the assay with CAKI-1 renal; > 66.5 µM, 1.11 mM, > 2.5 mM [sample A] and > 100 µM [sample B] in the assay with COLO 205 colon. Also, the TGI is 50.7 µM, 1.21 mM, 2.44 mM [sample A] and > 100 µM [sample B] in the assay on HCC-2998 colon; 8.9 µM, 341 µM, 182 µM [sample A] and > 100 µM [sample B] in the assay on HCT-116 colon; 57.3 µM, 2.1 mM, > 1.58 mM [sample A] and > 100 µM [sample B] in the assay on HCT-15 colon; > 92.1 µM, 1.89 mM, > 2.41 mM [sample A] and > 100 µM [sample B] in the assay on HOP-62 NSCLC; 67.7 µM, 2.25 mM, > 2.5 mM [sample A] and > 100 µM [sample B] in the assay with HT29 colon; > 49.5 µM, 1.19 mM, 707 µM [sample A] and > 100 µM [sample B] with IGROV1 ovarian. Besides, the TGI in the assay on KM12 colon was 45 µM, 1.88 mM, > 2.5 mM [sample A] and > 100 µM [sample B]; in the assay on LOX IMVI melanoma, > 56.5 µM, 970 µM, 969 µM [sample A] and > 100 µM [sample B]; in the assay with M14 melanoma, > 94.2 µM, 2.36 mM, > 2.5 mM [sample A] and > 100 µM [sample B]; with MALME-3M melanoma, > 8.44 µM, 1.79 mM, > 2.5 mM [sample A] and > 100 µM [sample B]; in the assay on MCF7 breast, 53.8 µM, 1.51 mM, 2.45 mM [sample A] and > 100 µM [sample B]; in the assay with MDA-MB-231 breast, > 51 µM, 2.35 mM, > 2.5 mM [sample A] and > 100 µM [sample B]. The TGI in the assay on MDA-MB-435 was > 79.6 µM, 2.37 mM, > 2.5 mM [sample A] and > 100 µM [sample B]; in the assay with MOLT-4 leukemia it was > 60.6 µM, 1.23 mM, 370 µM [sample A] and > 100 µM [sample B]; in the assay on NCI-H23 lung, 52.2 µM, 2.11 mM, > 2.11 mM [sample A] and > 100 µM [sample B]; with NCI-H460 lung it was 60.5 µM, 477 µM, 312 µM [sample A] and > 100 µM [sample B]; in the assay with NCI-H522 lung it was > 74.6 µM, 1.4 mM, 2.17 mM [sample A] and > 100 µM [sample B]; in the assay on NCI/ADR-RES ovarian it was 19.2 µM, 2.32 mM, > 2.5 mM [sample A] and > 100 µM [sample B]. Also, the TGI in the assay on OVCAR-3 ovarian was 967 nM, 1.08 mM, 999 µM [sample A] and > 100 µM [sample B]; with OVCAR-4 ovarian it was > 81.5 µM, 1.79 mM, > 1.86 mM [sample A] and > 100 µM [sample B]; in the assay on OVCAR-5 ovarian, 58.8 µM, 1.86 mM, 1.27 mM [sample A] and > 100 µM [sample B]; in the assay with OVCAR-8 ovarian it was > 43.6 µM, 2.37 mM, > 2.5 mM [sample A] and > 100 µM [sample B]; in the assay on RPMI-8226 leukemia, 55.9 µM, 1.38 mM, > 1.52 mM; in the assay with RXF 393 renal, 37.3 µM, 817 µM, 688 µM [sample A] and > 100 µM [sample B]. Further, the TGI with SF-295 CNS is 9.27 µM, 2.24 mM, > 2.5 mM [sample A] and > 100 µM [sample B]; in the assay with SF-539 CNS, > 87.1 µM, 379 µM, 60.5 µM [sample A] and > 100 µM [sample B]; with SK-MEL-28 melanoma, 72.2 µM, 2.26 mM [sample A] and > 100 µM [sample B]; with SK-MEL-5 melanoma, 45.5 µM, 665 µM, 542 µM [sample A] and > 100 µM [sample B]; with SK-OV-3 ovarian, > 73.8 µM, 2.24 mM, > 2.5 mM [sample A] and > 100 µM [sample B]; in the assay with SN12C renal, > 34.4 µM, 2.18 mM, > 2.5 mM [sample A] and > 100 µM [sample B]. Moreover, the TGI in the assay on SNB-19 CNS is > 82 µM, 2.34 mM, > 2.5 mM [sample A] and > 100 µM [sample B]; in the assay with T-47D breast it was > 54.8 µM, 2.04 mM, > 2.5 mM [sample A] and > 100 µM [sample B]; in the assay with TK-10 renal, 79.3 µM, 1.93 mM, > 2.5 mM [sample A] and > 100 µM [sample B]; in the assay on U251 CNS it was > 77.4 µM, 2.36 mM, > 2.5 mM [sample A] and > 100 µM [sample B]; with UACC-257 melanoma, > 86.6 µM, 2.08 mM, > 2.5 mM [sample A] and > 100 µM [sample B]; in the assay with UACC-62 melanoma it was 48.7 µM, 1.12 mM, 788 µM [sample A] and > 100 µM [sample B]. Besides, the TGI in the assay on UO-31 renal was 49 µM, 656 µM, 351 µM [sample A] and > 100 µM [sample B]. In addition, the GI50 is 4.88 µM [sample A, mean of 3 tests] and 356 nM [sample A, mean of 5 tests] and 1.69 µM [sample B, 1 test] in the assay on A549 NSCLC; 5.91 µM [sample A, mean of 3 tests] and 233 nM [sample A, mean of 4 tests] and 2.69 µM [sample B, 1 test] in the assay on CAKI-1 renal; 305 nM, 6.83 µM, 8.28 µM [sample A] and 2.01 µM [sample B] with COLO 205 colon; 1.6 mM [sample A, mean of 3 tests] and 47.3 µM [sample A, mean of 5 tests] and > 100 µM [sample B, 1 test] in the assay with EKVX NSCLC; 4.88 µM [sample A, mean of 3 tests] and 121 nM [sample A, mean of 4 tests] and 289 nM [sample B, 1 test] in the assay with HCC-2998 colon; 235 nM, 5.77 µM, 8.53 µM [sample A] and 4.1 µM [sample B] in the assay with HCT-15 colon. In addition, the GI50 in the assay with HOP-92 NSCLC was 8.9 µM [sample A, 1 test] and > 82.9 µM [sample A, mean of 4 tests] and > 100 µM [sample B, 1 test]; in the assay with HT29 colon, 338 nM, 6.72 µM, 9.82 µM [sample A] and 3.69 µM [sample B]; with MALME-3M melanoma it was 151 µM [sample A, 1 test] and 298 nM [sample A, mean of 3 tests] and 6.23 µM [sample B, 1 test]; in the assay on MCF7 breast, 5.38 µM [sample A, mean of 3 tests] and 203 nM [sample A, mean of 4 tests] and 2.9 µM [sample B, 1 test]; in the assay with MDA-MB-231 breast, 1.2 mM [sample A, mean of 3 tests] and 13 µM [sample A, mean of 4 tests] and > 100 µM [sample B, 1 test]; in the assay with MDA-MB-435, 175 nM [sample A, mean of 5 tests] and 2.26 µM [sample B, 1 test]. The GI50 with NCI-H460 lung is 4.88 µM [sample A, 1 test] and 104 nM [sample A, mean of 5 tests] and 577 nM [sample B, 1 test]; in the assay with OVCAR-3 ovarian, 60.7 µM [sample A, mean of 3 tests] and 55.3 nM [sample A, mean of 5 tests] and 3.54 µM [sample B, 1 test]; in the assay on RPMI-8226 leukemia it was 9.01 µM [mean of 3 tests] and 129 nM [mean of 4 tests]; in the assay on SF-539 CNS it was 4.88 µM [sample A, mean of 3 tests] and 122 nM [sample A, mean of 5 tests] and 630 nM [sample B, 1 test]; in the assay with SK-MEL-2 melanoma it was > 952 µM [sample A, mean of 2 tests] and > 65.3 µM [sample A, mean of 4 tests] and 26.6 µM [sample B, 1 test]; in the assay with TK-10 renal it was 14.9 µM [sample A, 1 test] and 2.77 µM [sample A, mean of 5 tests] and > 100 µM [sample B, 1 test].
Consider `CC(C)[C@H](O)C(=O)N[C@H]1Cc2ccc3c(c2)[C@]24C5=C(N=C(O5)[C@H](C(C)C)NC1=O)c1nc(Cl)c(o1)-c1c(Cl)[nH]c5cccc(c15)-c1cccc2c1N[C@H]4O3`, for which the TGI with HCC-2998 colon was 55.7 nM and 1.62 µM; in the assay on HCT-116 colon it was 18.6 nM and > 10 µM; in the assay with MDA-MB-231 breast, 47.6 nM and > 10 µM; in the assay on SK-MEL-5 melanoma, 82.7 nM and 1.68 nM; in the assay on SNB-19 CNS, 91.7 nM and > 10 µM; with U251 CNS, 22.9 nM and > 10 µM.
With `CO[C@@]12[C@H](COC(N)=O)C3=C(C(=O)C(C)=C(N)C3=O)N1C[C@@H]1N[C@@H]12`, the TGI in the assay on DU-145 prostate was 7.19 µM, 757 nM, 15.5 µM; with HOP-62 NSCLC, 1.77 µM, 9.88 µM, 69.3 µM; in the assay on KM12 colon it was 9.51 µM, 10.9 µM, > 100 µM; in the assay with MOLT-4 leukemia it was 9.27 µM, 2.65 µM, > 100 µM; in the assay on OVCAR-8 ovarian it was 9.21 µM, 11.7 µM, > 100 µM; in the assay with SR leukemia it was 6.34 µM and > 100 µM. Moreover, the TGI in the assay with T-47D breast was > 100 µM [1 test] and 2.89 µM [mean of 2 tests] and 21 µM [mean of 29 tests]; in the assay on TK-10 renal, 19.9 µM, 812 nM, 28.1 µM.

(Values after PubChem BioAssay (NCI).)
